Experimental data: PubChem BioAssay (Tox21)
The shares of active, inactive and inconclusive entries below differ from those in the screen. For some assays here: Potencies beside an inconclusive call are fits to weak or partial responses and may not hold up. Activity calls are given as the source filed them. Unless noted, calls come from the whole dose curve; as a rule, active = well fitted curve in the direction sought with a large enough effect in the repeat runs; inconclusive = weak or mixed curves; inactive = no such curve, though single readings can be large; an effect the other way counts as inactive or inconclusive.

Assays:
[1] = target: Peroxisome proliferator-activated receptor gamma (Homo sapiens) (UniProt P37231); assay: qHTS assay to identify small molecule agonists of the peroxisome proliferator-activated receptor gamma (PPARg) signaling pathway (AID 743094; active = well fitted activation curve with a large enough effect in the signal ratio in the repeat runs, not every such curve was filed as active; inconclusive = weak or mixed curves, or effect the other way; inactive = no such curve, though single readings can be large or run the other way; the % refers to the signal ratio; note: % is set by controls: 0 for no effect and ±100 for the full control effect); conditions: HEK293H PPARg-UAS-bla, beta-lactamase FRET ratio, 17 h; activation: at 57 µM (top of the series) unless noted
UniProt P37231, sequence (P37231 whole entry, looked up): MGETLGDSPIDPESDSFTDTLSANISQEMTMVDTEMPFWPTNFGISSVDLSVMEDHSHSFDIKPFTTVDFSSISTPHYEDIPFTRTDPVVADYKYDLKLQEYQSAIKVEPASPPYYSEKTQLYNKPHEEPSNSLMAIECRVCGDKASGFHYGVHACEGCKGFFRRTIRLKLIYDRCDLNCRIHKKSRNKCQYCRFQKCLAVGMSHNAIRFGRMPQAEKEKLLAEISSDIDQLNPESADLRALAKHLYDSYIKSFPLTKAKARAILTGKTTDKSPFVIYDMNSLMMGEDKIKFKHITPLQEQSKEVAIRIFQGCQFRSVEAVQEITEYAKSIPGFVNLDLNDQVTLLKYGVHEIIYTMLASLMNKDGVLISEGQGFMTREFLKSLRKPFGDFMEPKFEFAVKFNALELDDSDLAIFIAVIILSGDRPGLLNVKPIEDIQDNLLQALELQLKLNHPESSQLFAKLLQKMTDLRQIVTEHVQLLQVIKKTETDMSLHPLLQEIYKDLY
Method in brief: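 Agonist activity was taken from a beta-lactamase reporter (FRET substrate, 1 h at room temperature) in HEK293H cells carrying a PPARg UAS-bla construct. Compounds in DMSO were incubated 17 h at 37C after a 5 h cell pre-incubation.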

[2] = target: Peroxisome proliferator-activated receptor gamma (Homo sapiens) (UniProt P37231); assay: qHTS assay to identify small molecule antagonists of the peroxisome proliferator-activated receptor gamma (PPARg) signaling pathway (AID 743191; calls by dose curve; note: % is set by controls: 0 for no effect and ±100 for the full control effect; nearly all actives have a fitted effect of over 30% in size); conditions: HEK293H PPARg-UAS-bla, beta-lactamase ratio, antagonist, 17 h; ratio activity, negative = inhibition: at 62.6 µM (top of the series) unless noted
Method in brief: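 GeneBLAzer PPARg UAS-bla HEK293H cells, 5 h post-plating, exposed to compounds 17 h at 37C. LiveBLAzer B/G FRET substrate added for 1 h at room temperature; beta-lactamase reporter read by fluorescence intensity.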

[3] = target: Bile acid receptor (Homo sapiens) (UniProt Q96RI1); assay: qHTS assay to identify small molecule antagonists of the farnesoid-X-receptor (FXR) signaling pathway (AID 743217; active = well fitted inhibition curve with a large enough effect in the signal ratio in the repeat runs, not every such curve was filed as active; inconclusive = weak or mixed curves, or effect the other way; inactive = no such curve, though single readings can be large or run the other way; the % refers to the signal ratio; note: % is set by controls: 0 for no effect and ±100 for the full control effect); conditions: HEK293T FXR-UAS-bla, beta-lactamase ratio, CDCA-stimulated, 16 h; activity change, negative = inhibition: at 62.6 µM (top of the series) unless noted
UniProt Q96RI1, sequence (Q96RI1 whole entry, looked up): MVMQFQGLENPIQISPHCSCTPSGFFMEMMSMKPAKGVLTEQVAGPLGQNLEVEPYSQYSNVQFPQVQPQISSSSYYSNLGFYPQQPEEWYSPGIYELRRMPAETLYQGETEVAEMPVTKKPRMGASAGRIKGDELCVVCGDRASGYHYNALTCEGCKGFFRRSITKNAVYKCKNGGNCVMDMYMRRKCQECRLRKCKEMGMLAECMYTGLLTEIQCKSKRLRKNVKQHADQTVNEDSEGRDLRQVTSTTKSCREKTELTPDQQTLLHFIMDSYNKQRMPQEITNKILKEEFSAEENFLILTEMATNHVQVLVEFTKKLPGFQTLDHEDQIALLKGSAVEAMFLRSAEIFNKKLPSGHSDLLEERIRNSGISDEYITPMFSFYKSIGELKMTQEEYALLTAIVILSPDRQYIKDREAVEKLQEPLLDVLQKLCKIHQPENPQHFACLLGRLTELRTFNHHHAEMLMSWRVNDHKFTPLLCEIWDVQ
Method in brief: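 Antagonist mode: chenodeoxycholic acid at 50 uM final stimulates a UAS-driven beta-lactamase reporter in HEK 293T FXR-bla cells during 16 h, 37C compound exposure. Read-out is FRET substrate fluorescence after 2 h at room temperature.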

[4] = target: Vitamin D3 receptor (Homo sapiens) (UniProt P11473); assay: qHTS assay to identify small molecule antagonists of the vitamin D receptor (VDR) signaling pathway (AID 743223; active = well fitted inhibition curve with a large enough effect in the signal ratio in the repeat runs, not every such curve was filed as active; inconclusive = weak or mixed curves, or effect the other way; inactive = no such curve, though single readings can be large or run the other way; the % refers to the signal ratio; note: % is set by controls: 0 for no effect and ±100 for the full control effect); conditions: VDR-UAS-bla HEK293T, beta-lactamase FRET ratio, 16 h; activity change, negative = inhibition: at 61 µM (top of the series) unless noted
UniProt P11473, sequence (P11473 whole entry, looked up): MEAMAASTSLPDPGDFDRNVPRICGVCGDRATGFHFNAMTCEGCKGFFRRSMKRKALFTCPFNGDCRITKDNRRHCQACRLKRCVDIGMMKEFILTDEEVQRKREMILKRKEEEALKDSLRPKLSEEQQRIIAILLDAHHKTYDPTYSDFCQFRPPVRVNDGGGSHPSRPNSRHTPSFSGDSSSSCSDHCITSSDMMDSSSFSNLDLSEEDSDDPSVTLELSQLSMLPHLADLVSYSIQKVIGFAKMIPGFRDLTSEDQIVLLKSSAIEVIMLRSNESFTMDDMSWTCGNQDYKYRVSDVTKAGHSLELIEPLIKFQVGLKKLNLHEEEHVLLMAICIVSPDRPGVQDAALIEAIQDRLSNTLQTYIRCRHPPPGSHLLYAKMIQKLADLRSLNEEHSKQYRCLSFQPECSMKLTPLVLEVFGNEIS
Method in brief: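 Quantitative HTS in VDR-bla reporter cells stimulated with 1alpha,25-dihydroxyvitamin D3, 3 nM final. Compound exposure 16 h, 37C, 5% CO2. Read-out: beta-lactamase FRET substrate fluorescence, 2 h RT.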

[5] = target: Thyrotropin receptor (Homo sapiens) (UniProt P16473); assay: qHTS assay to identify small molecule antagonists of the thyroid stimulating hormone receptor (TSHR) signaling pathway (AID 1259385; calls by dose curve; note: % is set by controls: 0 for no effect and ±100 for the full control effect; nearly all actives have a fitted effect of over 20% in size); conditions: TSHR-HEK293 cAMP HTRF, TSH-stimulated antagonist mode; activity change, negative = inhibition: at 92.4 µM (top of the series) unless noted
UniProt P16473, sequence (P16473 whole entry, looked up): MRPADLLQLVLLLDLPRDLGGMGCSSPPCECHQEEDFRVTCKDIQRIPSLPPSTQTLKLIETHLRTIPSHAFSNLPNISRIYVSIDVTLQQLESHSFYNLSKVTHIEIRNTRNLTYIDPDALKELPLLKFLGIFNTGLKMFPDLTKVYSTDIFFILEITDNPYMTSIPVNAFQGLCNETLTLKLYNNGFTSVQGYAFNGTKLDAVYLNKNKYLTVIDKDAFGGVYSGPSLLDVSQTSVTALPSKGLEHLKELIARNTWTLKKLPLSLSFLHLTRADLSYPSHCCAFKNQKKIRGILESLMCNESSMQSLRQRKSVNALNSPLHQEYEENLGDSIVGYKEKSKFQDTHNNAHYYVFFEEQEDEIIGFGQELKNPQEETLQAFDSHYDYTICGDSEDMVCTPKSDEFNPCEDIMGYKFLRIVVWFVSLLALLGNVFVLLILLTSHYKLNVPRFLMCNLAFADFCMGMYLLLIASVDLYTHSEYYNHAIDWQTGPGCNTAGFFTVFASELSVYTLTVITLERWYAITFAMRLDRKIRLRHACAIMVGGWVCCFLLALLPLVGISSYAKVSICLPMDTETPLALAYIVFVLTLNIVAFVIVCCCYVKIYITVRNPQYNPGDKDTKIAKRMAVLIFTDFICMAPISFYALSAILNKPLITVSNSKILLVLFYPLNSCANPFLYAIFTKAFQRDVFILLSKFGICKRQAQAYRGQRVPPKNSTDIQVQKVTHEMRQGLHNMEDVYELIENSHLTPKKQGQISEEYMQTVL
Method in brief: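 TSHR-HEK293 cells (800/well) plated 18 h, then compounds with Ro20-1724 and TSH at 1.5 ng/mL final, 30 min at room temperature. cAMP quantified by HTRF (cAMP-d2/anti-cAMP-cryptate, 1 h); 15 concentrations in triplicate.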

[6] = qHTS assay to identify small molecule antagonists of the progesterone receptor (PR) signaling pathway - cell viability counter screen (AID 1346798); note: potency is the fitted concentration of half-maximal effect; nearly all actives have a fitted effect of over 50% in size
Method in brief: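 CellTiter-Glo luminescence; PR-UAS-bla HEK293T, 3,000 cells/well; compound + R5020, 16 hr, 37C/5% CO2; 30 min RT before read.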

[7] = qHTS assay to identify small molecule agonists of the progesterone receptor (PR) signaling pathway - cell viability counter screen (AID 1346799; calls by dose curve; note: % is set by controls: 0 for no effect and ±100 for the full control effect; nearly all actives have a fitted effect of over 45% in size)
Method in brief: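 In parallel with the beta-lactamase readout, cytotoxicity toward PR-UAS-bla HEK293T cells was measured by CellTiter-Glo luminescence following 16 hr compound incubation in 2% charcoal-stripped FBS medium.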

[8] = Caspase-3/7 induction in HepG2 cells by small molecules, qHTS cell viability counter screen (AID 1346981); note: potency is the fitted concentration of half-maximal effect; nearly all actives have a fitted effect of over 30% in size
Method in brief: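 CellTiter-Fluor fluorescence measured viability in the same wells used for Caspase-Glo 3/7. HepG2 (wild type) at 2,000 cells/well were pre-incubated 5 hr, dosed, and given reagent at 16 hr, with 1 hr further at 37C.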

[9] = target: Cytochrome P450 2D6 (Homo sapiens) (UniProt P10635); assay: Cytochrome P450 Family 2 Subfamily D Member 6 (CYP2D6) small molecule antagonists: luciferase reporter qHTS assay (AID 1671196); note: % is set by controls: 0 for no effect and ±100 for the full control effect; nearly all actives have a fitted effect of over 50% in size
UniProt P10635, sequence (P10635 whole entry, looked up): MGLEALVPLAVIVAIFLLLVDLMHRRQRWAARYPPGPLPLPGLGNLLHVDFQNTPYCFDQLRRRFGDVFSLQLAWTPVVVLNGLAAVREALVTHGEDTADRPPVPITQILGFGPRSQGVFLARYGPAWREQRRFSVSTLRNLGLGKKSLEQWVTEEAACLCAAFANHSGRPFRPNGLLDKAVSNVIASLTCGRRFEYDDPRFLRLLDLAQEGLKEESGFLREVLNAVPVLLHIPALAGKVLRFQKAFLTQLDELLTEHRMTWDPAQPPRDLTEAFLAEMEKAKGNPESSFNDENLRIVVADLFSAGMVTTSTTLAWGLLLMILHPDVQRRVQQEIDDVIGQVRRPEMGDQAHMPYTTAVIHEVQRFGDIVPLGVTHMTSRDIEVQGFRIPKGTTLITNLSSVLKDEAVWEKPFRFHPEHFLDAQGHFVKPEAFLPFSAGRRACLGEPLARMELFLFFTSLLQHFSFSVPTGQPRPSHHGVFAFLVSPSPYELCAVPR
Method in brief: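 CYP2D6 activity was followed as luminescence from its luciferin product after a 1 h NADPH-driven reaction at room temperature. Enzyme-substrate mix and compound were pre-incubated for 10 min, and the signal was read 20 min after adding detection reagent.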

[10] = target: Cytochrome P450 1A2 (Homo sapiens) (UniProt P05177); assay: Cytochrome P450 Family 1 Subfamily A Member 2 (CYP1A2) small molecule antagonists: luciferase reporter qHTS assay (AID 1671199); note: nearly all actives have a fitted effect of over 50% in size; note: potency is the fitted concentration of half-maximal effect
UniProt P05177, sequence (P05177 whole entry, looked up): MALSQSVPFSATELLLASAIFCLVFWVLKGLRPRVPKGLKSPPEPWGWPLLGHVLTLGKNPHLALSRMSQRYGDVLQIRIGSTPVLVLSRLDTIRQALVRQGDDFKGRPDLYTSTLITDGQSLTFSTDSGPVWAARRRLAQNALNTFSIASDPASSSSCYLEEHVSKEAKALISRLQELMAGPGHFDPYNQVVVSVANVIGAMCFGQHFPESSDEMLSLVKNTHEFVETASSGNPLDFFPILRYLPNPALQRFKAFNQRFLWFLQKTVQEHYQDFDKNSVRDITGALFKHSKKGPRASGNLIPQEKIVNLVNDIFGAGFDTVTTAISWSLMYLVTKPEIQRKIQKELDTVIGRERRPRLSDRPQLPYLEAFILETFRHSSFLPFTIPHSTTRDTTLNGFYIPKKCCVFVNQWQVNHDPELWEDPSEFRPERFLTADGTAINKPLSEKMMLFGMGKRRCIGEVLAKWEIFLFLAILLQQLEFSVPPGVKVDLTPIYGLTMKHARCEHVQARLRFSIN
Method in brief: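 Luminescence from luciferin formed by CYP1A2 from a proluciferin substrate, read 20 min after detection reagent. Compound was pre-incubated 10 min with enzyme-substrate, and reaction started with NADPH regeneration solution for 1 h at room temperature; furafylline control.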

[11] = qHTS assay to identify small molecule antagonists of the estrogen receptor alpha (ER-alpha) signaling pathway - cell viability counter screen (AID 743074; calls by dose curve; note: potency is the fitted concentration of half-maximal effect; nearly all actives have a fitted effect of over 45% in size)
[12] = qHTS assay to identify small molecule antagonists of the estrogen receptor alpha (ER-alpha) signaling pathway using the BG1 cell line - cell viability counter screen (AID 743081); conditions: BG1Luc4E2 viability, CellTiter-Fluor, 22 h; activity change, negative = cytotoxicity: at 70.3 µM (top of the series) unless noted;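 note: compound given together with 17beta-estradiol as the ER stimulus; potency is the fitted concentration of half-maximal effect; nearly all actives have a fitted effect of over 45% in size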
[13] = qHTS assay for small molecule agonists of the antioxidant response element (ARE) signaling pathway (AID 743202; active = well fitted activation curve with a large enough effect in the signal ratio in the repeat runs, not every such curve was filed as active; inconclusive = weak or mixed curves, or effect the other way; inactive = no such curve, though single readings can be large or run the other way; the % refers to the signal ratio; note: % is set by controls: 0 for no effect and ±100 for the full control effect); conditions: HepG2 ARE-bla reporter, beta-lactamase FRET, 16 h; activation: at 73.3 µM (top of the series) unless noted
Method in brief: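 HepG2 ARE-bla cells; 16 h treatment at 37 C; FRET-based beta-lactamase fluorescence read after 2 h substrate incubation at room temperature.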

[14] = target: Voltage-gated inwardly rectifying potassium channel KCNH2 (Homo sapiens) (UniProt Q12809); assay: Human Ether-a-go-go-Related Gene (hERG) channel small molecule antagonists: fluorescence cell-based qHTS assay (AID 1671200);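 note: hERG-expressing U2OS cells given a thallium stimulus after FluxOR II dye loading; % is set by controls: 0 for no effect and ±100 for the full control effect; nearly all actives have a fitted effect of over 50% in size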
UniProt Q12809, sequence (Q12809 whole entry, looked up): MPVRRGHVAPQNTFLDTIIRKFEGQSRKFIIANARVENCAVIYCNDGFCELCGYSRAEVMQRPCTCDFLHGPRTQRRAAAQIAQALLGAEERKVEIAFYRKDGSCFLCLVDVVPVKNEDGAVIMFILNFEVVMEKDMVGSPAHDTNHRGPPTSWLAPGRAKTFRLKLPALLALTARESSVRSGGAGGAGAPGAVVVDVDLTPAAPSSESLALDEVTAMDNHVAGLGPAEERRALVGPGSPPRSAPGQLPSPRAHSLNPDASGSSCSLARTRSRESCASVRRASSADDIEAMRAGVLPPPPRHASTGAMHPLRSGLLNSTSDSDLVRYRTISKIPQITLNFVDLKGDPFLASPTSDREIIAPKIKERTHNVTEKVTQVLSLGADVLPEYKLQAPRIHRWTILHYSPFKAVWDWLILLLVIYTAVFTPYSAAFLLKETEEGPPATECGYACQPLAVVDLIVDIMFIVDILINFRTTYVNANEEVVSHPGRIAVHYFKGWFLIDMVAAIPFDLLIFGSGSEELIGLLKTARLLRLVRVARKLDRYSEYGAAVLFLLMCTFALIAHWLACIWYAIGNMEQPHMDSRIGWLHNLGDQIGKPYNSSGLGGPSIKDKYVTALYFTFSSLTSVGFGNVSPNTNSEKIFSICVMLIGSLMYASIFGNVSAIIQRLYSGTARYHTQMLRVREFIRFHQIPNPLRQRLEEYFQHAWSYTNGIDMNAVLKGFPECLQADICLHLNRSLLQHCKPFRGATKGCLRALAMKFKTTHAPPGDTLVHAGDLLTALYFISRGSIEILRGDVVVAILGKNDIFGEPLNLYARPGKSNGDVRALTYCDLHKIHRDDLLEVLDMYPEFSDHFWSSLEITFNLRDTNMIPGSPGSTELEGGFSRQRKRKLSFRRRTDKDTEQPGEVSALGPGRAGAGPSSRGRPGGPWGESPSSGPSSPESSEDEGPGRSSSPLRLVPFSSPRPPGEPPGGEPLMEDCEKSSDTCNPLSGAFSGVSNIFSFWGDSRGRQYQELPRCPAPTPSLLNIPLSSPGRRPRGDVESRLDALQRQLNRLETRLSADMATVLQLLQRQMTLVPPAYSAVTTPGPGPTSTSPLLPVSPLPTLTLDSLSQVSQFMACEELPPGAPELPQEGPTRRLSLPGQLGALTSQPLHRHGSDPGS
Method in brief: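 Thallium served as the potassium surrogate; its influx into dye-loaded U2OS cells carrying the channel was measured by fluorescence over 2 min.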

[15] = qHTS assay for small molecule agonists of the p53 signaling pathway (AID 651631; calls by dose curve; note: potency is the fitted concentration of half-maximal effect; nearly all actives have a fitted effect of over 15% in size); conditions: HCT-116 p53RE-bla reporter, beta-lactamase FRET ratio, 16 h; activation: at 73.3 µM (top of the series) unless noted
Method in brief: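 Testing took place in human colorectal HCT-116 cells with stable p53RE-driven beta-lactamase. After 16 h of compound exposure at 37 °C, a FRET substrate was added and fluorescence recorded 2 h later.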

[16] = qHTS assay for small molecule disruptors of the mitochondrial membrane potential - cell viability (AID 720634; calls by dose curve; note: potency is the fitted concentration of half-maximal effect; nearly all actives have a fitted effect of over 20% in size)
Method in brief: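 Cytotoxicity was quantified from ATP content by CellTiter-Glo luminescence in the same wells as the MMP dye read-out. HepG2 (2,000 cells/well) were plated overnight and exposed to compounds for 1 hr at 37 C.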

[17] = qHTS assay for small molecule disruptors of the mitochondrial membrane potential (AID 720635); conditions: HepG2 mitochondrial membrane potential, Mito-MPS dye ratio; ratio activity, negative = MMP loss: at 83.2 µM (top of the series) unless noted; note: % is set by controls: 0 for no effect and ±100 for the full control effect
Method in brief: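 HepG2 cells exposed to compound 1 hr at 37C, then Mito-MPS dye 30 min. Ratio read of aggregate (540/590 nm) versus monomer (490/535 nm) fluorescence.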

[18] = qHTS assay for identifying genotoxic compounds that show differential cytotoxicity against isogenic chicken DT40 cell lines with known DNA damage response pathways - Rev3 mutant cell line (AID 743014); conditions: chicken DT40 Rev3-/- viability, CellTiter-Glo, 40 h; activity, negative = cytotoxicity: at 68.4 µM (top of the series) unless noted; note: % is set by controls: 0 for no effect and ±100 for the full control effect; nearly all actives have a fitted effect of over 55% in size
[19] = target: Estrogen receptor (Homo sapiens) (UniProt P03372); assay: qHTS assay to identify small molecule antagonists of the estrogen receptor alpha (ER-alpha) signaling pathway (AID 743069; active = well fitted curve in the direction sought with a large enough effect in the signal ratio in the repeat runs, not every such curve was filed as active; inconclusive = weak or mixed curves, or effect the other way; inactive = no such curve, though single readings can be large or run the other way; the % refers to the signal ratio; note: % is set by controls: 0 for no effect and ±100 for the full control effect); conditions: HEK293 ER-alpha-UAS-bla, beta-lactamase ratio, antagonist mode; activity, negative = inhibition: at 69.4 µM (top of the series) unless noted
UniProt P03372, sequence (P03372 whole entry, looked up): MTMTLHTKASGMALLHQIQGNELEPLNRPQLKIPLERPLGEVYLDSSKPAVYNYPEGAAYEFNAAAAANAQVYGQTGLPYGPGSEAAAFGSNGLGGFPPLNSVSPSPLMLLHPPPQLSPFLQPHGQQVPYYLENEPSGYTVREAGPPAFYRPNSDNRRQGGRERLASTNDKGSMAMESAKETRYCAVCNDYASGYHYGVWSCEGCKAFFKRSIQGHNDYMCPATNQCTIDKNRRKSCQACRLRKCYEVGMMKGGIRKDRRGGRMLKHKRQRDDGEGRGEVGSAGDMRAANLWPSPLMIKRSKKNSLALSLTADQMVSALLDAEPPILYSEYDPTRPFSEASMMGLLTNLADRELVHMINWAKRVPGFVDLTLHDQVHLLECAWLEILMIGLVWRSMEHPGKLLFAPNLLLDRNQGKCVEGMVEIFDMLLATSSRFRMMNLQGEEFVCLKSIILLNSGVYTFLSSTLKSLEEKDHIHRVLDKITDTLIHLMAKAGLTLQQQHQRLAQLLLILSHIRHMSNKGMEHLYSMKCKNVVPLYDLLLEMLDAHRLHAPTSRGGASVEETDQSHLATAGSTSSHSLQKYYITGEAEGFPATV
Method in brief: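 In this cell-based reporter format, GripTite HEK293 cells harbouring ER-alpha-UAS-bla were grown overnight with 2% charcoal-stripped FBS, dosed with DMSO-dissolved compounds, then challenged with 17beta-estradiol. After 18 hr at 37C, beta-lactamase activity was detected by FRET fluorescence.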
Tags give direction and shape of the fitted curve or compound fluorescence and quenching.

COC(=O)c1ccc(OC)cc1
inactive: Potency [2] | Potency [3] | Potency [5] | Potency [7] | Potency [9]
inconclusive: activation [1] 31.3% | activity change, negative = inhibition [4] 11.1% | Potency [6] 61.1 µM [rising, partial curve, poor fit] | Potency [8] 30.6 µM [rising, partial curve, poor fit]
active: Potency [10] 35.6 µM

O=C[C@H](O)[C@@H](O)[C@H](O)[C@H](O)CO
inconclusive: Potency [11] 26.8 µM [cytotoxic, single point] | Potency [12] 13.3 µM [cytotoxic, single point]
inactive: Potency [13] | Potency [5] | Potency [10] | Potency [14]

CCCCc1ccc2c(n1)[C@@H](c1ccc(OC)cc1C[C@H](C)C(=O)O)[C@H](C(=O)O)[C@H]2c1ccc2c(c1)OCO2
inconclusive: Potency [15] 68.6 µM [rising, partial curve, poor fit] | Potency [16] 68.6 µM [cytotoxic, single point] | ratio activity, negative = MMP loss [17] -30.8% | Potency [6] 6.11 µM [cytotoxic, full curve, poor fit]
inactive: Potency [18] | Potency [19] | Potency [5]
